Data: paper PMC4336329 (PLoS ONE, 2015)
Screen size: about 310,000 compounds; about 14,000 (4.5%) showed an effect of 50% or more. The effect is printed as a negative number. The list shows a part of the results.

Biological target: human ether-à-go-go-related gene (hERG) potassium channel (human, UniProt Q12809)
Test: primary screen, population patch clamp on CHO cells stably expressing hERG
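Also: peak tail current of the secondary pulse compared with the same well before compound.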

Chain of human ether-à-go-go-related gene (hERG) potassium channel (Q12809 whole entry, looked up): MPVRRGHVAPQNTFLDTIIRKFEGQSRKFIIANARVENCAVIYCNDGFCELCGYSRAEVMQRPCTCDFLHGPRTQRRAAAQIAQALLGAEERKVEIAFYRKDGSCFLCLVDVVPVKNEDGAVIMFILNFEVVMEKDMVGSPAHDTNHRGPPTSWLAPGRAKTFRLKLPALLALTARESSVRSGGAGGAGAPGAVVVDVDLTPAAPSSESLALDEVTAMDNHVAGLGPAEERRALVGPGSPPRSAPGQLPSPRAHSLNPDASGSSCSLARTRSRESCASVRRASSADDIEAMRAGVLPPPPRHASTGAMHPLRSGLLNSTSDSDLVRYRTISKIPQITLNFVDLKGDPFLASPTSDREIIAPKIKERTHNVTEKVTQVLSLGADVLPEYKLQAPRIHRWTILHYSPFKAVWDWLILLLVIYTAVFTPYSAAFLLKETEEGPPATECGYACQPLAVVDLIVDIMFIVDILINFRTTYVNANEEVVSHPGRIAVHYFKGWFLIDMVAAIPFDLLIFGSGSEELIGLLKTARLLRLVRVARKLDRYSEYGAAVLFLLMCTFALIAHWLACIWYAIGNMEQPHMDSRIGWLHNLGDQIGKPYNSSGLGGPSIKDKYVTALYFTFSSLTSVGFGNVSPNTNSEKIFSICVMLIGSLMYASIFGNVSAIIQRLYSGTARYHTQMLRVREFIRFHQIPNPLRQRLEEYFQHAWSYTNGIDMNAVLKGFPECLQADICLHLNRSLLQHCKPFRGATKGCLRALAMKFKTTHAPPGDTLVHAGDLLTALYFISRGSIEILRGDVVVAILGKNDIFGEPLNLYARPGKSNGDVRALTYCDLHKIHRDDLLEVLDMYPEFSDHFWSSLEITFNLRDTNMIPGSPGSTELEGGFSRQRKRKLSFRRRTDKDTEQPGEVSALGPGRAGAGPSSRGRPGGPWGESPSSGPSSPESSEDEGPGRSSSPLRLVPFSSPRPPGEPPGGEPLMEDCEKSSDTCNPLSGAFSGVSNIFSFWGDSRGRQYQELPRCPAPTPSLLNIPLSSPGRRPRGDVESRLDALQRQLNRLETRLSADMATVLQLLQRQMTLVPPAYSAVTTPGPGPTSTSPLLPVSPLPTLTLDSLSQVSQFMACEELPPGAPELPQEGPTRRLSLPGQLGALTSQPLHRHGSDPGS

Row | SMILES | hERG current change (%, negative = inhibition) at 10uM [%]
1 | COc1c(Cl)cc(Br)c(OC)c1C(=O)NC(=O)Nc1nc(C)cc(C)n1 | 12.7
2 | Cc1ccc(-n2nnc3c(=O)n(CC(N)=O)cnc32)cc1 | 3.72
3 | COc1cccc(CN2C(=O)C(C)N(C(=O)c3ccccc3)c3ccccc32)c1 (stereo not shown) | -5.44
4 | COc1ccc(C(=O)Nc2cccc3c2CCCC3)cc1OC | 4.99
5 | COc1ccc(N2CCN(C(=O)c3ccc4c(c3)NC(=O)C(CSCc3ccc(C)cc3)N4)CC2)cc1 (stereo not shown) | 20.2
6 | CCCc1ccc(C(=O)NNc2cc(Cl)ccc2Cl)cc1 | 4.07
7 | Cc1cc(C)n(-c2nc3ccccc3nc2N2CCOCC2)n1 | 7.3
8 | O=C(O)CSCC(=O)N(c1ccccc1)c1ccccc1 | 18.4
9 | Cc1nn(-c2ccc(C(=O)Nc3nnc(C4CC4)s3)cc2)c(C)c1Cl | 0.502
10 | COc1ccc(-c2nnn(CCC(=O)O)n2)cc1 | 3.09
11 | Cc1nc2nc(C)c(NS(=O)(=O)c3cccs3)c(=O)n2[nH]1 | 17.3
12 | Cc1cc(C(=O)NNC(=O)Nc2cccc(C(F)(F)F)c2)no1 | 14.4
13 | NC(=O)COC(=O)c1c2c(nc3ccccc13)CCCCC2 | -23.2
14 | N#Cc1nc(-c2ccc(F)cc2)oc1N1CCCC1 | -1.49
15 | Cc1cc(NC(=O)COC(=O)C2CCN(S(=O)(=O)c3cccc(Cl)c3Cl)CC2)no1 | -1.85
16 | Cc1nc(SCc2ccc(O)c([N+](=O)[O-])c2)c([N+](=O)[O-])[nH]1 | -2.21
17 | Cc1cccc(C)c1NC(=O)C1C2C=CC(C2)C1C(=O)O (stereo not shown) | 9.48
18 | COc1ccccc1-c1nnc(NC(=O)c2ccc(S(=O)(=O)N(C)Cc3ccccc3)cc2)o1 | -0.307
19 | COc1ccc(/C(C)=N/Nc2nc3ccccc3nc2C)cc1 | -10.8
20 | COc1ccc(NC(=O)C(c2ccc(C)cc2)N(C)C(=O)c2cnccn2)cc1 (stereo not shown) | -35.2
21 | COCC(=O)Nc1ccc(N2CCN(c3ccccc3)CC2)c(F)c1 | 22.6
22 | O=C(Nn1cnnc1)c1cc2c(s1)CCCC2 | 0.59
23 | Cc1ccc(CN2CCN(/N=C/c3ccco3)CC2)c(C)c1 | -18.8
24 | CC(=O)N1N=C(c2ccc(Br)cc2)CC1c1cn(C)c2ccccc12 (stereo not shown) | 6.91
25 | O=C(c1ccncc1)N1CCN(S(=O)(=O)c2cccc(C(F)(F)F)c2)CC1 | -31.4
26 | Cc1ccc(CNC(=O)CSCc2ccc(F)cc2)cc1 | -5.13
27 | Fc1ccc(CN2CC[C@H]3C=CCc4cccc(c43)C2)cc1 | -30.2
28 | Cc1nc(C)c(C(=O)Nc2ccc(Oc3ccccc3)cc2)o1 | -26.3

Row | SMILES | hERG current change (%, negative = inhibition) at 10uM [%]
29 | CC(C)c1nnc(NC(=O)CCC(=O)NC2CC2)s1 | 20.2
30 | CN(CC(=O)Nc1cccc(F)c1)C(=O)CCC1CCCCC1 | 17.7
31 | Cn1c(=O)n(C)c2cc(/C=N/NC(=O)c3ccc(Cl)cc3Cl)ccc21 | -12.5
32 | COc1ccc(/C=C(/NC(=O)c2ccc(OC)c(OC)c2)C(=O)NCCc2c[nH]c3ccccc23)cc1 | -46.4
33 | COc1cccc2c1C(=O)c1c(O)c3c(c(O)c1C2=O)C[C@@](O)(C(=O)CO)C[C@@H]3O[C@H]1C[C@H](N)[C@H](O)[C@H](C)O1.Cl | 6.68
34 | Cc1ccc(C)c(N2CCN(C(=O)c3ccc4c(=O)n5c(nc4c3)CCCCC5)CC2)c1 | -40.2
35 | COc1ccc(CC(=O)Nc2cccc(Cl)c2C)cc1S(=O)(=O)N1CCOCC1 | -14.9
36 | CN(C)c1ncc(S(=O)(=O)c2ccccc2)c(-c2ccc(Cl)cc2Cl)n1 | -8.47
37 | COc1ccc(N2C(=O)CC2(C#N)c2ccc(OCc3ccccc3)cc2)cc1 (stereo not shown) | 8.21
38 | CN(C)CCCCOc1ccccc1F.O=C(O)C(=O)O | 14.4
39 | CC(Cc1ccccc1)NCc1ccccc1O.Cl (stereo not shown) | 4.58
40 | Cc1ccc(C(C)NC(=O)CSc2ccc(S(=O)(=O)N3CCOCC3)cn2)cc1C (stereo not shown) | -0.177
41 | Cc1nn(C)cc1/C=N/NC(=S)Nc1ccccc1 | -12.5
42 | CCOc1ccc(NC(=O)CCc2c(C)noc2C)cc1OC | -5.38
43 | Cl.Nc1ccc2nc(Cc3ccccc3)[nH]c2c1 | 13.9
44 | Cc1ccc(C)c(-n2cc(CN3CCCN(C=O)CC3)c(-c3ccccc3)n2)c1 | -31.9
45 | CC(=O)Nc1ccc(S(=O)(=O)N(C)CCOCc2ccccc2)cc1 | 1.04
46 | Cc1ccc(O)c(NC(=O)c2cccc(S(=O)(=O)N3CCCCC3)c2)c1 | -42.1
47 | CC(=O)[C@@H]1[C@@H](C)N(Cc2ccccc2)C(=O)N[C@H]1c1cccc(C(F)(F)F)c1 | 5.55
48 | COCCn1c(SCc2nc3scc(-c4ccc(Cl)cc4)c3c(=O)[nH]2)nnc1-c1cccc(C)c1 | -17.8
49 | O=C(Nc1ccccc1Oc1ccccc1)c1cccc([N+](=O)[O-])c1 | -31.4
50 | COc1ccc(C(=O)N/N=C(\C)CC(=O)Nc2ccc3c(c2)OCCO3)c(OC)c1 | 12.6
51 | COc1ccc(N(C(=O)c2snc(C(N)=O)c2N)C(C(=O)NC2CCCC2)c2ccc(OC)c(OC)c2)cc1 (stereo not shown) | 10.9
52 | O=C(CN1CCOCC1)Nc1ccccc1-c1ccccc1 | 4.15
53 | Cc1nn(Cc2ccc(F)cc2)c(Cl)c1/C=N/NC(=O)c1cccnc1 | -33.5
54 | Cc1nc2ccccc2n1C1CCN(C(=O)Nc2ccccc2)CC1 | -60.5
55 | Cc1cc(S(=O)(=O)NCC(=O)O)ccc1F | -27.1
